# Test results: PubChem BioAssay (NCATS)
# This list was built around the results that the source calls inconclusive (neither active nor inactive); the mix of calls is not that of the screen. For some of these results: Potencies of inconclusive entries are left out as doubtful fits. Calls of active or inactive are those of the source. Unless noted, the call rests on the fitted dose curve; in most records, active means well fitted curve in the direction sought with a large enough effect; inconclusive means small, poorly fitted or top-dose-only effect, or another doubt; inactive means no such curve, though single readings can be large; an effect the other way counts as inactive or inconclusive.
# Key:
# [1] = biological target: Glutathione peroxidase 1 (Homo sapiens) (UniProt P07203); test: Primary qHTS Assay for Inhibitors of Recombinant Selenoprotein Glutathione Peroxidase 1 (GPX1) (AID 1845191); further: nearly all actives have a fitted effect of over 65% in size; further: potency means the concentration at half of the fitted maximal effect
# Chain of UniProt P07203 (P07203 whole entry, looked up): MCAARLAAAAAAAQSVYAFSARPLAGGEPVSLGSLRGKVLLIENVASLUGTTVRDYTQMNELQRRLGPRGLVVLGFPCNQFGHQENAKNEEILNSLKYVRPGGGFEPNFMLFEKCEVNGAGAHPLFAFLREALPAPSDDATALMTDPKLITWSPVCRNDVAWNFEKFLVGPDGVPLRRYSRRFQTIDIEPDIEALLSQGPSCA
# How it was run: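 GR-coupled readout: NADPH consumption tracked by fluorescence, ex 340/em 450 nm, at t=0 and after 15 min at RT. Final mix 10 nM GPX1, 1 mM GSH, 0.5 mM CHP, 0.5 mM NADPH, 100 nM GR, 0.01% BSA, following 30 min enzyme–compound preincubation.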
# [2] = qHTS Assay for Identification of Small Molecule Agonists for Hypoxia Response Element Signaling Pathway (AID 914; active means well fitted activation curve with a large enough effect in the signal ratio, with a control signal flat, not every such curve was filed as active; inconclusive means small, poorly fitted or top-dose-only effect, or effect the other way, or a change in a side signal; the % refers to the signal ratio; further: potency means the concentration at half of the fitted maximal effect); conditions: ME-180 (cervical carcinoma) HRE-bla reporter, beta-lactamase ratio, CoCl2, 17 h; activation: hits give high values
# How it was run: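 Reporter activity (beta-lactamase, CCF4 460nm/530nm ratio) in HRE-bla ME-180 cells is recorded after 17 h compound exposure with EC50 CoCl2 at 37 degrees Celsius. AC50 values come from titration data.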
# [3] = NFAT Signaling Pathway (AID 444; active means well fitted curve in either direction with a large enough effect, not every such curve was filed as active; inconclusive means small, poorly fitted or top-dose-only effect, or another doubt;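 further: carbachol stimulus at about its EC50 of 1 µM final; on the % scale 0 is the no-effect control and ±100 the full control effect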); conditions: Jurkat NFAT-bla M1, carbachol, beta-lactamase ratio, 5 h; at 7.69 µM (top of the series) unless noted
# How it was run: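 Jurkat cells with NFAT-driven β-lactamase reporter and co-expressed M1 receptor, stimulated with carbachol (final 1 uM, ~EC50), compound titration, 5 h at 37 °C. CCF4 loaded 1 h at RT; 460/530 nm ratio gave %activity and AC50.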
# [4] = biological target: 3',5'-cyclic-AMP phosphodiesterase 4B (Homo sapiens) (UniProt Q07343); test: qHTS Assay for Inhibitors of PDE-IV (AID 607; active means well fitted activation curve with a large enough effect in the main read-out, with a control signal flat, not every such curve was filed as active; inconclusive means small, poorly fitted or top-dose-only effect, or effect the other way, or a change in a side signal; further: % of control where 0% means no effect); conditions: HEK293 ACTOne CNG channel cells, membrane potential fluorescence; activation (PDE inhibition): at 22.9 µM (top of the series)
# Chain of UniProt Q07343 (Q07343 whole entry, looked up): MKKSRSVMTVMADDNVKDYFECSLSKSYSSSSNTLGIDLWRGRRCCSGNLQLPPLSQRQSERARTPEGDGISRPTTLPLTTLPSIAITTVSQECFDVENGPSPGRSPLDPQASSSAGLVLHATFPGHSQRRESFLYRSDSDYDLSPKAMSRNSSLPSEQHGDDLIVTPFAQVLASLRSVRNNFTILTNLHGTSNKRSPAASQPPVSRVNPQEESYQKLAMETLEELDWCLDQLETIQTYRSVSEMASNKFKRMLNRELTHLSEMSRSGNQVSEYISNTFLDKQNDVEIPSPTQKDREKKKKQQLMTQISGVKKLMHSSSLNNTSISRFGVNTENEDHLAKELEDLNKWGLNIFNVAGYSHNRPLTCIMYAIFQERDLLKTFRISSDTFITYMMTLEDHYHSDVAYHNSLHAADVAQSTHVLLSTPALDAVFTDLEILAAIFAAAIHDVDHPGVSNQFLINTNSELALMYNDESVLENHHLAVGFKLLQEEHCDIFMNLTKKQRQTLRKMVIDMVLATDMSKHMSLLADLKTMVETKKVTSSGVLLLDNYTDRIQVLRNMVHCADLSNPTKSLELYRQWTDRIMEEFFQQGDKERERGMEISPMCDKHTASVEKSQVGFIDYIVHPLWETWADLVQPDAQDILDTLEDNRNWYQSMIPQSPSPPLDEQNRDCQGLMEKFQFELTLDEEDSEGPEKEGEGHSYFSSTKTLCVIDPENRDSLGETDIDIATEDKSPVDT
# How it was run: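 ACTOne HEK293 cells carry a modified cAMP-gated CNG channel and express endogenous PDE4; plated 1000 cells/well, compounds up to 22.9 uM final. Membrane-potential dye fluorescence (ex 535/em 590) was read; parental cells received 10 uM forskolin + 100 uM RO 20-1724.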
# [5] = qHTS for differential inhibitors of proliferation of Plasmodium falciparum line GB4 (AID 1816); conditions: Potency: Plasmodium falciparum GB4 proliferation inhibition;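 further: parasite growth measured after 72 h incubation; 0% = vehicle DMSO and -100% = reference inhibitor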
# [6] = qHTS for differential inhibitors of proliferation of Plasmodium falciparum line Dd2 (AID 1882); conditions: Potency: Plasmodium falciparum Dd2 proliferation inhibition;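 further: plate controls were DMSO vehicle for no effect and 0.29 µM artemisinin for full effect; nearly all actives have a fitted effect of over 65% in size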
# How it was run: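 SYBR Green DNA fluorescence (ex 485, em 535 nm) after overnight lysis quantifies parasite growth; compound exposure lasted 72 h at 37 C on infected red cells at 2.5% hematocrit, 0.3% parasitemia (final). Artemisinin 0.29 uM and vehicle wells define normalization.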
# [7] = biological target: RecQ-like DNA helicase BLM (Homo sapiens) (UniProt P54132); test: qHTS Validation Assay for Inhibitors of Bloom's syndrome helicase (BLM) (AID 2364);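 further: plate controls were DMSO vehicle for no effect and enzyme-free control for full effect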
# Chain of UniProt P54132 (P54132 whole entry, looked up): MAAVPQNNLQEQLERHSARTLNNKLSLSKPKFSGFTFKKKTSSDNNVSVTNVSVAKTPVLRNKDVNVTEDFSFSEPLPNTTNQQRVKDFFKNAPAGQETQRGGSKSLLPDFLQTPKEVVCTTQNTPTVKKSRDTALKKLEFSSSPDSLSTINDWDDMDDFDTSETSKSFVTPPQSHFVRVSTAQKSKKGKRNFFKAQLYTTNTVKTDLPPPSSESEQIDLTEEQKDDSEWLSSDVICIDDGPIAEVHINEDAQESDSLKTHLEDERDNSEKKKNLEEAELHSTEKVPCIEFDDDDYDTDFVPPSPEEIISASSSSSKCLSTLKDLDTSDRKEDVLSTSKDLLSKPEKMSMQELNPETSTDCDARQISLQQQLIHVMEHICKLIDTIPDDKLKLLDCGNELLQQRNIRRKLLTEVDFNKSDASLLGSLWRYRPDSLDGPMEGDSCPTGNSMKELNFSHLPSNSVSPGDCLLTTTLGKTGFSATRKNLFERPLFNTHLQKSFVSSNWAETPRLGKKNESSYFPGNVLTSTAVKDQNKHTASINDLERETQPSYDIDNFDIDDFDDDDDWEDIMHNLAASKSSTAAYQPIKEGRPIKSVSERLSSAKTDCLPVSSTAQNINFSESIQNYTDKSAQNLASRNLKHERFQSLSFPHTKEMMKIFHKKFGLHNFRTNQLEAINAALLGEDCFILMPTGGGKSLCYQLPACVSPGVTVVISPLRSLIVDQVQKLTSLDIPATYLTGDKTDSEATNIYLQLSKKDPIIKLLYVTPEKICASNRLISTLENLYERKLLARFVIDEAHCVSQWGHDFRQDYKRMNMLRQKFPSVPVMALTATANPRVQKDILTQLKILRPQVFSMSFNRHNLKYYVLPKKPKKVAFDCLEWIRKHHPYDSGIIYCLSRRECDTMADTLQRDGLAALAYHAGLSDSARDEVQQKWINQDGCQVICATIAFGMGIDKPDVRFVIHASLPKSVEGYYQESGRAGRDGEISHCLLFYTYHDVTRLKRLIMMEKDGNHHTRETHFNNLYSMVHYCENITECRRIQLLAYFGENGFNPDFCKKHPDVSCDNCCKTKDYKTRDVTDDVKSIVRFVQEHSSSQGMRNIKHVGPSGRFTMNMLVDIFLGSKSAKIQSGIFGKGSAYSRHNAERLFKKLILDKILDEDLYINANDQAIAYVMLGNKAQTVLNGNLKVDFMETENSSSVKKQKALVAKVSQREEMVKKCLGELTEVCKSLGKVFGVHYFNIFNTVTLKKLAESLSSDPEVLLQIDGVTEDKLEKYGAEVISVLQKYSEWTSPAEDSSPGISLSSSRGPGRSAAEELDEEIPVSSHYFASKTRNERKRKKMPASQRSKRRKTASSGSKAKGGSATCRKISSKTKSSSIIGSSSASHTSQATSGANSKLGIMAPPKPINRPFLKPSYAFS
# How it was run: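 50 nM BLM preincubated 15 min at room temperature with compound in pH 8.0 Tris buffer containing 2.5 ug/ml poly(dI-dC); started with 200 nM TAMRA/BHQ-2 forked duplex and 2 mM ATP (final). Unwinding read as TAMRA fluorescence increase, two reads 2 h apart.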
# [8] = biological target: ATP-dependent 6-phosphofructokinase (Trypanosoma brucei brucei) (UniProt O15648); test: qHTS Validation Assay to Find Inhibitors of T. brucei phosphofructokinase (AID 485368)
# Chain of UniProt O15648 (O15648 whole entry, looked up): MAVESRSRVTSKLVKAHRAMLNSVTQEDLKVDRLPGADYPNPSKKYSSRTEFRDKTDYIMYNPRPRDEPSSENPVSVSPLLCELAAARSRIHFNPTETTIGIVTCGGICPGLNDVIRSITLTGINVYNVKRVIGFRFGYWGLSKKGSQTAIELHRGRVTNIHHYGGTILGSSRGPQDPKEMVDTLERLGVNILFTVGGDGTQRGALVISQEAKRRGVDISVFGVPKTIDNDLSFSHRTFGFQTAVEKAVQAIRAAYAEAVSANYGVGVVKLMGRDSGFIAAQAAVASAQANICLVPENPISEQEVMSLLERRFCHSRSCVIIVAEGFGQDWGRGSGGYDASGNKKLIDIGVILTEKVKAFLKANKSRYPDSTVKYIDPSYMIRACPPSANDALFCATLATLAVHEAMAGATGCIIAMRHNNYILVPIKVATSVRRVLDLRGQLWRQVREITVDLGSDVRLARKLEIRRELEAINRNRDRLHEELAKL
# How it was run: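 Inhibition derived from concentration-response curves of luminescence, ranked by r2, response size and curve class; the underlying reaction used 1.25 nM PFK, 0.1 mM ATP and 0.5 mM F6P, 45 min, room temperature.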
# [9] = biological target: Thioredoxin reductase 1, cytoplasmic (Rattus norvegicus) (UniProt O89049); test: qHTS Assay for Inhibitors of Mammalian Selenoprotein Thioredoxin Reductase 1 (TrxR1) (AID 488773); conditions: Potency: inhibition; further: potency means the concentration at half of the fitted maximal effect; nearly all actives have a fitted effect of over 40% in size
# Chain of UniProt O89049 (O89049 whole entry, looked up): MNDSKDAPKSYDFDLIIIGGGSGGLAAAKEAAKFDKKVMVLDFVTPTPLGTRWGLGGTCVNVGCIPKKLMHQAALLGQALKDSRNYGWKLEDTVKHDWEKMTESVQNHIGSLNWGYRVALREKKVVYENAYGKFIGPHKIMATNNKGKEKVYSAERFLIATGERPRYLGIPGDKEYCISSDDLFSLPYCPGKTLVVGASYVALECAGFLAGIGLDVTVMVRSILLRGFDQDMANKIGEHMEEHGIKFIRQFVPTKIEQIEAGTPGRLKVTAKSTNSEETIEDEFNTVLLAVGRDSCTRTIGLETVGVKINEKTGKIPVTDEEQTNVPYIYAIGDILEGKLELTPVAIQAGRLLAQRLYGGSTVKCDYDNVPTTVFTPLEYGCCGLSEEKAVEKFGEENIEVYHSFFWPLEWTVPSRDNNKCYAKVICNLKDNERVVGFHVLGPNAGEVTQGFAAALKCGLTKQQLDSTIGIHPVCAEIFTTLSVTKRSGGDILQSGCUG
# How it was run: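 Inhibition is scored from the loss of NADPH fluorescence between first and last reads of an 8-min kinetic run. Selenite (400 uM) was the substrate, added after 15 min compound preincubation at room temperature.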
# [10] = biological target: D(1A) dopamine receptor (Homo sapiens) (UniProt P21728); test: HTS Assay for Allosteric Agonists of the Human D1 Dopamine Receptor: Primary Screen for Potentiators (AID 488982); further: potency means the concentration at half of the fitted maximal effect
# Chain of UniProt P21728 (P21728 whole entry, looked up): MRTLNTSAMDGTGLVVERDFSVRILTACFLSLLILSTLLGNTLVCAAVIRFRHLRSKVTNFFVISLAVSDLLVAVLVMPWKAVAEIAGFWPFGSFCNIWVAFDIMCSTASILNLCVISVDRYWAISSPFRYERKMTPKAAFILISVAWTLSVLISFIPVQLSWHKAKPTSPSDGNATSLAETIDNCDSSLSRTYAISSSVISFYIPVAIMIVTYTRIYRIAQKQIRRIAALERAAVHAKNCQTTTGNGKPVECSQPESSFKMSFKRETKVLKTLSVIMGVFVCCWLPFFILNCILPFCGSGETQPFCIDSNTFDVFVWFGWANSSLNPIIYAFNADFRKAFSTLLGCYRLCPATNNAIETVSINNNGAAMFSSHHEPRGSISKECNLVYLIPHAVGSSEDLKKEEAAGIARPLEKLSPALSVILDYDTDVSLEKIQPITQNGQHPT
# How it was run: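 Tetracycline-induced HEK293 Trex D1 cells with forced coupling to calcium, loaded with no-wash calcium dye; kinetic fluorescence read 180 s after compound addition for agonism, then a further 180 s after an EC20 dopamine challenge for potentiation.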
# [11] = qHTS for Inhibitors of ATXN expression: Validation (AID 588378); further: on the % scale 0 is the no-effect control and ±100 the full control effect; nearly all actives have a fitted effect of over 75% in size
# How it was run: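 After a 2 h attachment and 24 h compound incubation, HEK293-ATXN2-FFLuc wells are read for fluorescence at 405 nm excitation/525 nm emission as a viability measure, then for Bright-Glo luminescence reflecting ATXN2 expression.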
# [12] = HTS Assay for Allosteric Antagonists of the Human D2 Dopamine Receptor: Hit Validation in HTRF (AID 624455);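 further: stable D1 dopamine receptor cell line scored for blocking the D1 response; on the % scale 0 is the no-effect control and ±100 the full control effect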
# How it was run: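 Inhibition of the D1-mediated response is measured by HTRF in cells that stably express the D1 dopamine receptor. Compounds reaching this step are hits from calcium-flux antagonism testing at EC80 dopamine in inducible Hek293 Trex D2 cells.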
# [13] = qHTS Assay for Identifying Gametocytocidal Compounds (AID 743244); further: potency means the concentration at half of the fitted maximal effect; conditions: P. falciparum 3D7 stage III-V gametocytes, alamarBlue, 72 h; max response: hits give low values
# How it was run: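 Viability read-out was resazurin reduction (alamarBlue, 24 h) measured at Ex 525/Em 598 nm. Beforehand, late-stage (III-V) 3D7 P. falciparum gametocytes at 20,000 cells/well were incubated with compound 72 h at 37C under 5% CO2.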
# Tags describe the fitted curve by direction and shape or compound fluorescence and quenching.
compound,measurement,setting,value
CCOC(=O)c1cc2ccc(O)cc2oc1=O,Potency,[1],"inconclusive [inhibitor, single point]"
CC(C)(O)CC[C@@H](O)[C@](C)(O)[C@H]1CC[C@@]2(O)C3=CC(=O)[C@@H]4C[C@@H](O)[C@@H](O)C[C@]4(C)[C@H]3CC[C@]12C,Potency,[1],"inconclusive [inhibitor, single point]"
COc1ccc(-c2nc3cnc(N4CCN(C)CC4)nc3n(C)c2=O)cc1,Potency,[2],"inconclusive [activator, single point]"
O=C(c1cc(C(F)(F)F)cc(C(F)(F)F)c1)N1CCC[C@@]2(CCN(c3ccncc3)C2)C1,"activity change, negative = inhibition",[3],inconclusive: -52.6% [inhibitor]
same,Potency,[4],inactive
same,Potency,[2],"inconclusive [activator, single point]"
COc1cc(C(O)CO)ccc1O (stereo unspecified),Potency,[5],inactive
same,Potency,[6],inactive
same,Potency,[7],inactive
same,Potency,[8],inactive
same,Potency,[9],"inconclusive [inhibitor, partial curve, poor fit]"
same,Potency,[10],"inconclusive [activator, full curve, poor fit]"
same,Potency,[11],inactive
same,Potency,[12],inactive
same,Potency,[13],"inconclusive [inhibitor, single point]"
same,Potency,[1],inactive
